From PMC11045787, “Disordered clock protein interactions and charge blocks turn an hourglass into a persistent circadian oscillator” (Nature Communications, 2024)
Substitutions are numbered along the chain they refer to. No constants are given. Whether binding was seen depends on the method and setting. Binding seen in cells or lysates may run through a third protein. Some results given as binding are weak or reduced against the parent protein; the word gives no strength. Sequences can lack the tags named with a protein.

Tests used:
[1] = biological target: T1, FRQ^RR/AA (RR783AA, VHF-tagged) (N. crassa) (UniProt P19970); assay: co-IP; anti-Flag (one replicate also anti-V5) co-immunoprecipitation of VHF-tagged FRQ from N. crassa lysates; overnight at 4 °C, 50 mM HEPES pH 7.4, 137 mM NaCl, 10% glycerol, 0.4% NP-40 alternative; blot with anti-FRH
T1 sequence: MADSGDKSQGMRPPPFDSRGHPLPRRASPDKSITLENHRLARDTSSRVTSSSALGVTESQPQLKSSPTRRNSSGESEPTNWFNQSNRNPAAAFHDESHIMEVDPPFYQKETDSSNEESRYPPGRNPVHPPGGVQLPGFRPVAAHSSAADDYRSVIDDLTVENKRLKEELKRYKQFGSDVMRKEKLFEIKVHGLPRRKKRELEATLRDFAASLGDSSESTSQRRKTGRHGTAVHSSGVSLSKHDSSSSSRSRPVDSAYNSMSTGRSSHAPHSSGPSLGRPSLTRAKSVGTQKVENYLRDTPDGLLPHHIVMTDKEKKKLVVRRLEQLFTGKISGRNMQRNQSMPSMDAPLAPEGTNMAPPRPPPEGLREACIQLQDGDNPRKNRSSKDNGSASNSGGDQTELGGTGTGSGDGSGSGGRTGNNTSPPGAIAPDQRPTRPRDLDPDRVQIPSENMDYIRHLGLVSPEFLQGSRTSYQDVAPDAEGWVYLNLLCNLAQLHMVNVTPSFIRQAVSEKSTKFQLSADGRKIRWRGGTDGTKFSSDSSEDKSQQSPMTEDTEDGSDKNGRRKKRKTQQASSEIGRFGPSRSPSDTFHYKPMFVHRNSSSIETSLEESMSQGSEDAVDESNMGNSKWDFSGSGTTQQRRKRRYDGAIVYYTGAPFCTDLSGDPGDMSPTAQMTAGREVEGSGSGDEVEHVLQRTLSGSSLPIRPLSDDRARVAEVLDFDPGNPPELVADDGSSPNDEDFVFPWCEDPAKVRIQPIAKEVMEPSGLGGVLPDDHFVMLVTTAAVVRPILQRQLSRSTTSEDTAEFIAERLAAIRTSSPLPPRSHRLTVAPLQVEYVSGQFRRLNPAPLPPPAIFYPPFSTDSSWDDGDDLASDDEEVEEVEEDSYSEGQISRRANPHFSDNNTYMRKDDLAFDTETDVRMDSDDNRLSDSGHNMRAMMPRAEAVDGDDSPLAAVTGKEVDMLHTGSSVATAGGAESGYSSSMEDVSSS

[2] = biological target: T2, FRQ^RR/HH (RR783HH, VHF-tagged) (N. crassa) (UniProt P19970); assay: as above
T2 sequence: T1 sequence with A783H, A784H

[3] = biological target: T3, FRQ^VHF (wild-type FREQUENCY with V5-10-His-3-Flag tag) (N. crassa) (UniProt P19970); assay: as above
T3 sequence: T1 sequence with A783R, A784R

[4] = biological target: T4, FRQ^KKK/AAA (KKK315AAA, VHF-tagged) (N. crassa) (UniProt P19970); assay: co-IP; co-immunoprecipitation on VHF-tagged FRQ from lysates of N. crassa strains carrying short-ck1a^HA; overnight at 4 °C, 50 mM HEPES pH 7.4, 137 mM NaCl, 10% glycerol, 0.4% NP-40 alternative; blots with anti-FRH and anti-HA
T4 sequence: T1 sequence with K315A, K316A, K317A, A783R, A784R

[5] = biological target: T3, FRQ^VHF (wild-type FREQUENCY with V5-10-His-3-Flag tag) (N. crassa); assay: as above

B1: FRQ-interacting RNA Helicase (FRH), endogenous (protein, UniProt Q1K502 1-1106)
chain: MDDLFEVFEEQPRAQKKRKASPDVEMADGAAAAAPVANAAAAVTHPQAQAAPAPQKDNIDNNDNNNNNTTTSAVQPTIPNGDAAAAADDVQSPQSPHGLGDNKRRKKTDEAEPIMTDAFQTAESREVTGAQGFAPTEGESIVLSHNIQHQVALPPDLDYEYIPLSEHKPPAEPARTYSFKLDPFQALSVASIEREESVLVSAHTSAGKTVVAEYAIAQCLKKNQRVIYTSPIKALSNQKYRDFQAEFGDVGLMTGDVTINPTASCLVMTTEILRSMLYRGSEIMREVAWVVFDEIHYMRDKIRGVVWEETIILLPDKVRYVFLSATIPNAFQFAEWIAKIHRQACHVVYTDFRPTPLQNYFFPAGGKGILLIVDEKGNFKENNFNQAMAMIEEKKGTDSNDWSAKQKGKGKNKKTNKGGEAADEKADIAKIIKMILKKNFQPVIVFNFSKRECEQMALASSSMKFNAPDEENMVNKVFENALASLSEDDKNLPQISNILPLLRKGIGVHHSGLLPILKETIEILFQEGLIKVLFATETFSIGLNMPARTVVFTQVTKWDGQQRRPLTSSEYIQMAGRAGRRGLDDRGIVIMMVDDKLEPETARAIVVGNQDKLNSAFHLGYNMVLNLLRIEAISPEYMLERCFFQFQNAASVPQLERELISLQQERDAIIIPDESIVKDYYGVRQQLEEYNKDMVFVIQHPQNCLGFFQEGRLIHIKSPSGVDYGWGVLIKHIQRQTPKNGQPPYPEQESYVLDVLLKVSGDFNPKTRGEGPMPEGIMPAGKDSKNARWEVVPCLLNCLRALGQLRVFLPKRLESADEKDGVGKAVDEISRRFPDGIPILDPMENMGINDDSFKKLLRKIEVLESRLVANPLHNSPLLVELWNQYSLKMQLGEQIKEKKKAIARAHSVAQLDELKSRKRVLRRLGFINDAEVVQMKARVACEISSTEGHELLLAELLFNRFFNELSPEICACILSCFIFDEKIETQALKEELAKPFREIQAQARIIAKVSAESKLDVNEDEYVQSLKWQLMETVLAWAQGRPFSEICKMTNVYEGSLIRLFRRLEELLRQMAEAARVMGSEELKDKFELSLSKIRRDIVSFNSLYL
- binding [1]: no binding
- binding [2]: binds
- binding [3]: binds
- binding [4]: binds
- binding [5]: binds
